# Reference: the supplement of paper PMC4967469
# IC50 is the fitted dose that halves viability relative to control wells, and lower means more sensitive; fits outside the tested doses are given as limits. For AUC the same curve is integrated over the 256-fold range of doses and scaled to a fraction; values near 1 show little effect.
# Compound: FC(F)c1nc2ccccc2n1-c1nc(N2CCOCC2)nc(N2CCOCC2)n1 [ZSTK474]
# Assay: Viability of human cancer cell lines after 72 h of drug (GDSC screen)
# Experimental: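 Human cancer cell lines in 384-well plates, medium with 10% serum, drug for 72 h over a 256-fold dose range (nine 2-fold or five 4-fold steps up to the top dose). Adherent lines were fixed and stained with the nucleic acid dye Syto60, suspension lines read with resazurin; signal relative to control wells, capped at 0 and 100%. One two-parameter sigmoid per drug and line, fitted in a mixed model over all curves with the slope shared within a line.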
Cell Line,AUC,IC50
"KMH-2 (thyroid, adherent, top dose 5.12 µM)",0.817,2470 nM
"KMOE-2 (acute myeloid leukaemia, suspension, top dose 5.12 µM)",0.695,1050 nM
"KMRC-1 (kidney, adherent, top dose 5.12 µM)",0.966,> 5120 nM
"KMRC-20 (kidney, adherent, top dose 5.12 µM)",0.974,> 5120 nM
"KMS-11 (myeloma, suspension, top dose 5.12 µM)",0.848,3000 nM
"KMS-12-BM (myeloma, suspension, top dose 5.12 µM)",0.559,451 nM
"KNS-42 (glioma, adherent, top dose 5.12 µM)",0.879,> 5120 nM
"KNS-81-FD (glioma, adherent, top dose 5.12 µM)",0.863,> 5120 nM
"KON (head and neck, adherent, top dose 5.12 µM)",0.968,> 5120 nM
"KOPN-8 (B-cell leukaemia, suspension, top dose 5.12 µM)",0.75,1470 nM
"KP-1N (pancreas, adherent, top dose 10.24 µM)",0.259,126 nM
"KP-2 (pancreas, adherent, top dose 5.12 µM)",0.79,2490 nM
"KP-3 (pancreas, adherent, top dose 5.12 µM)",0.761,2160 nM
"KP-4 (pancreas, adherent, top dose 5.12 µM)",0.643,780 nM
"KP-N-YN (neuroblastoma, adherent, top dose 5.12 µM)",0.963,> 5120 nM
"KP-N-YS (neuroblastoma, adherent, top dose 5.12 µM)",0.897,> 5120 nM
"KS-1 (glioma, adherent, top dose 5.12 µM)",0.595,624 nM
"KU812 (chronic myeloid leukaemia, suspension, top dose 5.12 µM)",0.1,< 20 nM
"KU-19-19 (bladder, adherent, top dose 5.12 µM)",0.974,> 5120 nM
"KURAMOCHI (ovary, adherent, top dose 5.12 µM)",0.869,> 5120 nM
"KY821 (leukaemia, suspension, top dose 5.12 µM)",0.951,> 5120 nM
"KYAE-1 (oesophagus, suspension, top dose 5.12 µM)",0.312,89.2 nM
"KYM-1 (rhabdomyosarcoma, adherent, top dose 5.12 µM)",0.982,> 5120 nM
"KYSE-50 (oesophagus, adherent, top dose 5.12 µM)",0.44,223 nM
"KYSE-70 (oesophagus, adherent, top dose 5.12 µM)",0.908,> 5120 nM
"KYSE-140 (oesophagus, adherent, top dose 5.12 µM)",0.707,1340 nM

Cell Line,AUC,IC50
"KYSE-150 (oesophagus, adherent, top dose 5.12 µM)",0.924,> 5120 nM
"KYSE-180 (oesophagus, adherent, top dose 5.12 µM)",0.894,> 5120 nM
"KYSE-220 (oesophagus, adherent, top dose 5.12 µM)",0.657,898 nM
"KYSE-270 (oesophagus, adherent, top dose 5.12 µM)",0.793,1960 nM
"KYSE-410 (oesophagus, adherent, top dose 5.12 µM)",0.878,> 5120 nM
"KYSE-450 (oesophagus, adherent, top dose 5.12 µM)",0.659,860 nM
"KYSE-510 (oesophagus, adherent, top dose 5.12 µM)",0.949,> 5120 nM
"KYSE-520 (oesophagus, adherent, top dose 5.12 µM)",0.653,987 nM
"L-363 (myeloma, suspension, top dose 5.12 µM)",0.682,950 nM
"L-428 (Hodgkin lymphoma, suspension, top dose 5.12 µM)",0.963,> 5120 nM
"L-540 (Hodgkin lymphoma, suspension, top dose 5.12 µM)",0.848,3190 nM
"L-1236 (Hodgkin lymphoma, suspension, top dose 5.12 µM)",0.899,4670 nM
"LAMA-84 (chronic myeloid leukaemia, suspension, top dose 5.12 µM)",0.754,1750 nM
"LAN-6 (neuroblastoma, adherent, top dose 5.12 µM)",0.869,> 5120 nM
"LB373-MEL-D (melanoma, adherent, top dose 5.12 µM)",0.955,> 5120 nM
"LB647-SCLC (small cell lung carcinoma, semi-adherent, top dose 5.12 µM)",0.723,1500 nM
"LB771-HNC (head and neck, adherent, top dose 5.12 µM)",0.707,1440 nM
"LB831-BLC (bladder, adherent, top dose 5.12 µM)",0.878,> 5120 nM
"LB996-RCC (kidney, adherent, top dose 5.12 µM)",0.965,> 5120 nM
"LB1047-RCC (kidney, adherent, top dose 5.12 µM)",0.695,1220 nM
"LB2241-RCC (kidney, adherent, top dose 5.12 µM)",0.981,> 5120 nM
"LB2518-MEL (melanoma, adherent, top dose 5.12 µM)",0.764,1960 nM
"LC4-1 (lymphoblastic leukaemia, suspension, top dose 5.12 µM)",0.324,97.6 nM
"LC-1-sq (lung squamous cell carcinoma, adherent, top dose 5.12 µM)",0.77,2290 nM
"LC-2-ad (lung adenocarcinoma, adherent, top dose 5.12 µM)",0.679,1020 nM
"LCLC-97TM1 (large cell lung carcinoma, adherent, top dose 5.12 µM)",0.67,1000 nM

Cell Line,AUC,IC50
"LCLC-103H (large cell lung carcinoma, adherent, top dose 5.12 µM)",0.816,2510 nM
"LK-2 (lung squamous cell carcinoma, adherent, top dose 5.12 µM)",0.881,4850 nM
"LN-18 (glioma, adherent, top dose 5.12 µM)",0.985,> 5120 nM
"LN-229 (glioma, adherent, top dose 5.12 µM)",0.921,> 5120 nM
"LN-405 (glioma, adherent, top dose 5.12 µM)",0.675,1120 nM
"LNCaP-Clone-FGC (prostate, adherent, top dose 5.12 µM)",0.383,145 nM
"LNZTA3WT4 (glioma, adherent, top dose 5.12 µM)",0.906,> 5120 nM
"LOU-NH91 (lung squamous cell carcinoma, adherent, top dose 5.12 µM)",0.95,> 5120 nM
"LOUCY (T-cell lymphoblastic leukaemia, suspension, top dose 5.12 µM)",0.422,205 nM
"LOXIMVI (melanoma, semi-adherent, top dose 5.12 µM)",0.873,4010 nM
"LP-1 (myeloma, suspension, top dose 5.12 µM)",0.543,411 nM
"LS-123 (large intestine, adherent, top dose 5.12 µM)",0.705,1480 nM
"LS-180 (large intestine, adherent, top dose 5.12 µM)",0.869,> 5120 nM
"LS-411N (large intestine, adherent, top dose 5.12 µM)",0.65,915 nM
"LS-513 (large intestine, adherent, top dose 5.12 µM)",0.793,2450 nM
"LS-1034 (large intestine, adherent, top dose 5.12 µM)",0.784,2420 nM
"LU-65 (large cell lung carcinoma, suspension, top dose 5.12 µM)",0.711,1420 nM
"LU-99A (large cell lung carcinoma, adherent, top dose 5.12 µM)",0.901,> 5120 nM
"LU-134-A (small cell lung carcinoma, suspension, top dose 5.12 µM)",0.808,2850 nM
"LU-135 (small cell lung carcinoma, suspension, top dose 5.12 µM)",0.969,> 5120 nM
"LU-139 (small cell lung carcinoma, suspension, top dose 5.12 µM)",0.786,2910 nM
"LU-165 (small cell lung carcinoma, suspension, top dose 5.12 µM)",0.868,> 5120 nM
"LXF-289 (lung adenocarcinoma, adherent, top dose 5.12 µM)",0.757,1740 nM
"LoVo (large intestine, adherent, top dose 5.12 µM)",0.925,> 5120 nM
"M14 (melanoma, adherent, top dose 5.12 µM)",0.955,> 5120 nM
"M059J (glioma, adherent, top dose 5.12 µM)",0.803,2800 nM
